Measurements from PubChem BioAssay AID1508624 (National Center for Advancing Translational Sciences (NCATS), 2021).
Out of some 48,000 compounds screened, about 120 (0.25%) were called active. Another 4% or so got no clear call; they are omitted. The call rests on the fitted dose curve; in most records, active means well fitted activation curve with a large enough effect; inconclusive means small, poorly fitted or top-dose-only effect, or another doubt; inactive means no such curve, though single readings can be large or run the other way. The list shows a part of the results.

Assay: Primary qHTS for Identification of Small Molecule Activators of Huntingtin-Antisense Promoter Activity; further: nearly all actives have a fitted effect of over 55% in size
Settings: HEK293 HTT-AS promoter firefly luciferase reporter (activity 0% = vehicle and -100% = no light), 24 h; series mostly up to 57.5 µM; activity change, positive = activation: at the top concentration
In short: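 Firefly luciferase readout (Dual-Glo, 10 min RT) after 24 h, 37 °C compound exposure (final up to 57.5 uM) of HEK293 reporter cells cultured 24 h beforehand; PTC124 at 50 uM final as control inhibitor; activity scaled vehicle 0%, zero RLU -100%.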

Activity change, positive = activation, inactive:
Cc1ccc(-c2nc(CS(=O)CC(=O)N3CCN(c4cccc(Cl)c4)CC3)c(C)o2)cc1 (stereo unspecified) -32.4%
COc1cccc(C(=O)c2cn(CC(=O)NCc3ccccc3Cl)c3nc(C)ccc3c2=O)c1 -59.4%
Cc1ccc2cccc(NC(=O)COc3ccccc3Cl)c2n1 -15.1%
Cc1ccc(C)c(Cn2c(CCCNC(=O)C3CCCCC3)nc3ccccc32)c1 -23.3%
Cc1c(Cl)cccc1NC(=O)Cn1cc(C(=O)c2cccs2)c2ccccc21 -66.9%
Cc1nc(-c2cccc(NC(=O)Nc3ccccc3C(F)(F)F)c2)no1 -10.1%
CCc1ccc(-n2c(=O)c3sc4ccccc4c3n(CC(=O)N3CCCC3)c2=O)cc1 -5.97%
O=C(CSc1nc2ccsc2c(=O)n1Cc1ccccc1Cl)NCc1ccc(F)cc1 -32.4%
CCOC(=O)c1[nH]c(C)c(C(=O)NC(CC)Cc2ccccc2)c1C (stereo unspecified) -2.15%
O=C(CN1C(=O)COc2ccc(S(=O)(=O)NC3CCCC3)cc21)Nc1ccc(Cl)cc1 8.24%
O=C(Nc1cccc(-c2cn3cccnc3n2)c1)c1cc(Br)ccc1Cl 1.27%
Cc1ccc(C)c(NC(=O)Cn2c(=O)n(CC3CCCO3)c(=O)c3ccccc32)c1 (stereo unspecified) -12.1%
CC(=O)Nc1ccc(NC(=O)CSc2nc3ccccc3nc2N2CCCCC2)cc1 -18.3%
COc1ccc(C(=O)Nc2cc(C)c(O)c(-c3nc4ccccc4s3)c2)cc1OC 1.9%
Cn1c(-n2cccc2)c(-c2c(-c3ccccc3)[nH]c3c2c(=O)[nH]c(=O)n3C)c(=O)[nH]c1=O -15.2%
Cc1ccc2c(c1)N(CC(=O)NCCc1ccc(Cl)cc1)C(=O)c1cccnc1O2 -35.5%
COc1cccc(CNC(=O)c2ccc3c(c2)nc2n3CCOC2)c1 -9.73%
Cc1ccc(-c2nnn3c2nc(NCC(C)c2ccccc2)c2ccccc23)cc1 (stereo unspecified) 16%
Cc1oc(=O)oc1CN1CCN(c2cc3c(cc2F)c(=O)c(C(=O)O)c2n3C(C)S2)CC1 (stereo unspecified)
CCOc1ccc(CNC(=O)c2ccc(CS(=O)Cc3ccc(Cl)cc3)o2)cc1 (stereo unspecified) -11.1%
CCN(Cc1ccccc1)C(=O)CN1C(=O)COc2ccc(S(=O)(=O)NC3CCCC3)cc21 -20.4%
COc1ccccc1NC(=O)CN1C(=O)C2(SCC(=O)N2c2ccc(F)c(F)c2)c2ccccc21 (stereo unspecified) -28.1%
Cc1nnc(NC(=O)c2nc(SCc3ccccc3F)ncc2Cl)s1 -10.8%
O=C(NCc1ccccc1)C(=O)Nc1ccc2nc3n(c(=O)c2c1)CCCCC3 -13.7%
COc1cc(NC(=O)CSc2nc(-c3ccco3)cc(C(F)(F)F)n2)cc(OC)c1OC -74.6%
COc1nc(C)cnc1NS(=O)(=O)c1cccnc1-c1ccc(-c2nnco2)cc1 5.08%
